Results are given in words; binding and its absence hold for the method and conditions named. In cells and extracts the contact can be indirect. Some entries that bind do so weakly or less than the wild type. For some of these results: Where a sequence is shown, tags or fusion partners need not be part of it.
What was measured:
[1] = target: inositol 1,4,5-trisphosphate receptor type 1 (human (endogenous in HeLa)) (UniProt Q14643); assay: co-IP; anti-IP3R1/IP3R3 IP (Protein A-Sepharose) from lysates (1% Triton X-100) of Bok KO HeLa cells transfected with T-Bok constructs; immunoblot
[2] = target: inositol 1,4,5-trisphosphate receptor type 3 (human (endogenous in HeLa)) (UniProt Q14573); assay: as above
1F-mouse Mcl-1 (mouse) = 1F-mouse Mcl-1 (mouse) (UniProt P97287); assay: co-IP; anti-Flag IP from lysates (1% Triton X-100) of Bok KO HeLa cells co-transfected with 1F-Mcl-1 and Bok constructs for ~18 h; immunoblot

Amino acid sequences for entries named in this document (tags omitted).
UniProt Q14643: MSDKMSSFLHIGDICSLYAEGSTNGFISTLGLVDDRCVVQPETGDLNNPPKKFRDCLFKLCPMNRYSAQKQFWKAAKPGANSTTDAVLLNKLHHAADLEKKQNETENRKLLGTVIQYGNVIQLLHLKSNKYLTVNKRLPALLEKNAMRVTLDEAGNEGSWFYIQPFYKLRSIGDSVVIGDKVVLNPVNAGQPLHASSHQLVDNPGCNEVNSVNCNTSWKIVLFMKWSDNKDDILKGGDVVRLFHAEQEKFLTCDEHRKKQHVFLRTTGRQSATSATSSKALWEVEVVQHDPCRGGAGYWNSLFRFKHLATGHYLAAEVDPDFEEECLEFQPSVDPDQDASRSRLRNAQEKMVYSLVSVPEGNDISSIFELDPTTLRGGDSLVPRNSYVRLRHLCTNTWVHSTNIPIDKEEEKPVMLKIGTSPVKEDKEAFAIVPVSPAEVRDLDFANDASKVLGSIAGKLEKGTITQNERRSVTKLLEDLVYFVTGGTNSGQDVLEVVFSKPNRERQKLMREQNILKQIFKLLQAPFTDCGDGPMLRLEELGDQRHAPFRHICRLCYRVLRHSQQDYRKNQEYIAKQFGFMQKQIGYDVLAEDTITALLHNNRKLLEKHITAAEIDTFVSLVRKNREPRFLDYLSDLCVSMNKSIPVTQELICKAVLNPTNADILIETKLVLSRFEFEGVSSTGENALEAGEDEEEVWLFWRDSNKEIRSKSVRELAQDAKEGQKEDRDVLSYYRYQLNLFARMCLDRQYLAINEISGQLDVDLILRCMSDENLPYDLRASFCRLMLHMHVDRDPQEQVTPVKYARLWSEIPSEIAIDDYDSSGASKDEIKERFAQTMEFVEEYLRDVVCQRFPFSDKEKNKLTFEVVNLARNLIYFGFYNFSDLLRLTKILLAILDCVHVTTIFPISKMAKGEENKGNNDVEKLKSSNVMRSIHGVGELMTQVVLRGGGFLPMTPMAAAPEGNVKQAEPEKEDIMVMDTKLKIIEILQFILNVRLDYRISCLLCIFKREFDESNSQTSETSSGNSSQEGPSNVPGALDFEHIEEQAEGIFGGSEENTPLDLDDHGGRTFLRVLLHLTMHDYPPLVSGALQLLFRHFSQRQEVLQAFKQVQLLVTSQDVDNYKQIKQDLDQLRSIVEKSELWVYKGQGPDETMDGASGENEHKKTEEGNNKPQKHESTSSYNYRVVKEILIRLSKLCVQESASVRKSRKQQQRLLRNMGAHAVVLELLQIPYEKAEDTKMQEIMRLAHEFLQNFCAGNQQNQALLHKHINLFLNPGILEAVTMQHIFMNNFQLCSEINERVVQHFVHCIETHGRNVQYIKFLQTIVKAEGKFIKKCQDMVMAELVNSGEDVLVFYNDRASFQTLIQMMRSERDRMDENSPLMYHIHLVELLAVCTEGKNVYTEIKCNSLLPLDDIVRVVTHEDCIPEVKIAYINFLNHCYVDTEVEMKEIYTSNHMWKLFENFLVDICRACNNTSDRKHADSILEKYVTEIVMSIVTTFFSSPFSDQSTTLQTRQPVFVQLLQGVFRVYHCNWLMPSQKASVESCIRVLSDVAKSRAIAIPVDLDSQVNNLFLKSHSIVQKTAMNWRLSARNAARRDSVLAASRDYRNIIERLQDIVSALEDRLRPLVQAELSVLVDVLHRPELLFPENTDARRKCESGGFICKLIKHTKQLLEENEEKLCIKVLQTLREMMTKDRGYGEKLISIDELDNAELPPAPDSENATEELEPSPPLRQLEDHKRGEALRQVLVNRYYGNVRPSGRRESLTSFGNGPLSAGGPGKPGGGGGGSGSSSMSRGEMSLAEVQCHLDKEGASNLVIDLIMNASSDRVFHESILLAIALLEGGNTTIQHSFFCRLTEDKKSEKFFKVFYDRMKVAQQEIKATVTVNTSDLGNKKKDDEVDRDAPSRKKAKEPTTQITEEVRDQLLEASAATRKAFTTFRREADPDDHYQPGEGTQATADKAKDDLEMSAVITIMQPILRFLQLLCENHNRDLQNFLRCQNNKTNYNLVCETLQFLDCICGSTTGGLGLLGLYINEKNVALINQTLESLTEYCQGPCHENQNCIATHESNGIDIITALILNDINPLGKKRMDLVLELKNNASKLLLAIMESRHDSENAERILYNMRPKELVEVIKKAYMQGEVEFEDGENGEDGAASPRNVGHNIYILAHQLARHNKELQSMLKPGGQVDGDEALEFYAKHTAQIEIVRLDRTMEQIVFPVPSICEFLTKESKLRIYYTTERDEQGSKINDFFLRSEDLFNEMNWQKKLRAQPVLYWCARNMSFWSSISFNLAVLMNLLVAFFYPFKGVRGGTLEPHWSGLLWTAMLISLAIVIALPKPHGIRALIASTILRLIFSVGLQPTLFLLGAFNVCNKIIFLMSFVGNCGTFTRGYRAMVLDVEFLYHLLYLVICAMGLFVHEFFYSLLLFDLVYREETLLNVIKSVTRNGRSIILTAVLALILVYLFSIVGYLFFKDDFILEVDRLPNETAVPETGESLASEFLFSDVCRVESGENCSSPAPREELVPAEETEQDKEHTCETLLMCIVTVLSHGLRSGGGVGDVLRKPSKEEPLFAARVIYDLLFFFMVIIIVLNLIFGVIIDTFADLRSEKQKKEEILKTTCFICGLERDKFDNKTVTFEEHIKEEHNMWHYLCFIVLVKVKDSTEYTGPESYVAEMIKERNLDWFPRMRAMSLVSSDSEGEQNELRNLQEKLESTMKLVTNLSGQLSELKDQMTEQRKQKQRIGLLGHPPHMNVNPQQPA
UniProt Q14573: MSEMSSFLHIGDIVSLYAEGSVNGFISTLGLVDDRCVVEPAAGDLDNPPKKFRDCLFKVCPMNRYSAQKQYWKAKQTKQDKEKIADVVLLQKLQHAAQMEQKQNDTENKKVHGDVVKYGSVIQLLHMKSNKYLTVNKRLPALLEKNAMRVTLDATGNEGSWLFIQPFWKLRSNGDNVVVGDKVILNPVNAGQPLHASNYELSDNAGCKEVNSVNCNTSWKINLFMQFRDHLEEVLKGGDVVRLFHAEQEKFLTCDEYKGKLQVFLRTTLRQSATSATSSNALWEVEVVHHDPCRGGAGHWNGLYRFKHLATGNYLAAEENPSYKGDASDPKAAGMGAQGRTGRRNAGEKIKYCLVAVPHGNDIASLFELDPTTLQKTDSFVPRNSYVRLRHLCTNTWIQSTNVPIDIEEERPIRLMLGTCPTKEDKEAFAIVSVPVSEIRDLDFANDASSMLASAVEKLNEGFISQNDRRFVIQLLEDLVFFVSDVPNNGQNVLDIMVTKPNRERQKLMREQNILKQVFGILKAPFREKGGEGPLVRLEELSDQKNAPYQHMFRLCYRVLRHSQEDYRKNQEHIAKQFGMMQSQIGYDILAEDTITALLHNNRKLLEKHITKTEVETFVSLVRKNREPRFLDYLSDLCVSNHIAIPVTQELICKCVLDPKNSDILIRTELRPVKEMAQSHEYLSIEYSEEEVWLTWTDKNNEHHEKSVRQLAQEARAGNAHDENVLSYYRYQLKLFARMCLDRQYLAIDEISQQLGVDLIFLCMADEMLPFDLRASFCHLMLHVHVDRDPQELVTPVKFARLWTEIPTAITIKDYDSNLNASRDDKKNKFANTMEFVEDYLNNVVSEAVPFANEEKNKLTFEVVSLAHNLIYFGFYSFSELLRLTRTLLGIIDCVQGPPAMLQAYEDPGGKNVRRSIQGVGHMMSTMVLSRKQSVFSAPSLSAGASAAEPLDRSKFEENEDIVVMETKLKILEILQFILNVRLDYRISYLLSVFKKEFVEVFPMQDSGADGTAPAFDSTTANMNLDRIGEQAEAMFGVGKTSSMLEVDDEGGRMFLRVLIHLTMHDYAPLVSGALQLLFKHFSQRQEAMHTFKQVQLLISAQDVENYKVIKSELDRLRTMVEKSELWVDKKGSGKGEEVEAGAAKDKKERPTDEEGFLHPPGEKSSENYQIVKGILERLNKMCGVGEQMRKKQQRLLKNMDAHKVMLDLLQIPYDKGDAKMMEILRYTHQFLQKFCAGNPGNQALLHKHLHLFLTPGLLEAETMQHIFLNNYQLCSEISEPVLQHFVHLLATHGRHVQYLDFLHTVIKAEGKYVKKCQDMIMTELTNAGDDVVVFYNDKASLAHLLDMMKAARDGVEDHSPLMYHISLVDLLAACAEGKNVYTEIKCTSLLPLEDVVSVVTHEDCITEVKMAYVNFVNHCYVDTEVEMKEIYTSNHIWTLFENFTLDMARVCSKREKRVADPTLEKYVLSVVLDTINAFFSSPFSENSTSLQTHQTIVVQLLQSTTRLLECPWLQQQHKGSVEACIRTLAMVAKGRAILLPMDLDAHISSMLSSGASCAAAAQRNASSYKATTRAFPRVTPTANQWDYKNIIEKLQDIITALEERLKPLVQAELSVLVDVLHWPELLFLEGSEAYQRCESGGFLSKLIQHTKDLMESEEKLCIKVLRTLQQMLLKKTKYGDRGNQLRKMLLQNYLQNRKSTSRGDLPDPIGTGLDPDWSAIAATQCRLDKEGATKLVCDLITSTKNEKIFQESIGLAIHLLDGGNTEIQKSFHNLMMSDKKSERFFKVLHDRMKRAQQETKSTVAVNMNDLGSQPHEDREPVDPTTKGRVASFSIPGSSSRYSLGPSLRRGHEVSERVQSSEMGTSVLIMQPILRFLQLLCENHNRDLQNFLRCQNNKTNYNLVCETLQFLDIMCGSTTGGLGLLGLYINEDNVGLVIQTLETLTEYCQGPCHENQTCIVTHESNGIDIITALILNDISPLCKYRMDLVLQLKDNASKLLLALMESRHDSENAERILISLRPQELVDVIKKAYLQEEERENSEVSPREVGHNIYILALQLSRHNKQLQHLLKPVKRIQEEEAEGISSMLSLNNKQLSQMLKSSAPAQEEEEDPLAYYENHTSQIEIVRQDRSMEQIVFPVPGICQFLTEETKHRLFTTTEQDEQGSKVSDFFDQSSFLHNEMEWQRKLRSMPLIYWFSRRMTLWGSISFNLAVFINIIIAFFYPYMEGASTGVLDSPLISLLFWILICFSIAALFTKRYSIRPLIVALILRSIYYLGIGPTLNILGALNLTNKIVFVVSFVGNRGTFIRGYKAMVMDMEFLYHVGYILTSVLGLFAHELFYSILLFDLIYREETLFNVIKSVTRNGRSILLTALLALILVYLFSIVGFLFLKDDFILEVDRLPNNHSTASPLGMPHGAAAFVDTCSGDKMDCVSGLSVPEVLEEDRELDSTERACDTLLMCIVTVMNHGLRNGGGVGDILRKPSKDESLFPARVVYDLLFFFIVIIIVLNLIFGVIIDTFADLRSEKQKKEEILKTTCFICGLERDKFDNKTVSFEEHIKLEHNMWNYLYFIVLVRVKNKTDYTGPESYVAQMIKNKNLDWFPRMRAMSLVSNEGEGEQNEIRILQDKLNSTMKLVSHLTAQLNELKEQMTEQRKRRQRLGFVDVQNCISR
UniProt P97287: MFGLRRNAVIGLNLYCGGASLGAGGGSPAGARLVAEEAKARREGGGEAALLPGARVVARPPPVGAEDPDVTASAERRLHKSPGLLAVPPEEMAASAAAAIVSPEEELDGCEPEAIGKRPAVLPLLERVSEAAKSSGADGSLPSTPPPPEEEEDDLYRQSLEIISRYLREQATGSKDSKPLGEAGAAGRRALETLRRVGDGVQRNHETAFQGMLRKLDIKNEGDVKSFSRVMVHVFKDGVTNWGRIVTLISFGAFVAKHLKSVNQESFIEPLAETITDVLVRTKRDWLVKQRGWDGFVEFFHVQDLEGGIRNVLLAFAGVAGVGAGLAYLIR

Row | Binder | binding [1] | binding [2] | binding (1F-mouse Mcl-1 (mouse))
1 | mouse Bok^L34G (protein, UniProt O35425 1-213) MEVLRRSSVFAAEIMDAFDRSPTDKELVAQAKAGGREYVHARLLRAGLSWSAPERASPAPGGRLAEVCTVLLRLGDELEQIRPSVYRNVARQLHIPLQSEPVVTDAFLAVAGHIFSAGITWGKVVSLYSVAAGLAVDCVRQAQPAMVHALVDCLGEFVRKTLATWLRRRGGWTDVLKCVVSTDPGFRSHWLVATLCSFGRFLKAAFFLLLPER |  |  | binds
2 | mouse Bok^WT (protein, UniProt O35425 1-213) MEVLRRSSVFAAEIMDAFDRSPTDKELVAQAKALGREYVHARLLRAGLSWSAPERASPAPGGRLAEVCTVLLRLGDELEQIRPSVYRNVARQLHIPLQSEPVVTDAFLAVAGHIFSAGITWGKVVSLYSVAAGLAVDCVRQAQPAMVHALVDCLGEFVRKTLATWLRRRGGWTDVLKCVVSTDPGFRSHWLVATLCSFGRFLKAAFFLLLPER |  |  | binds

Other lines, results leading:

Row | binding [1] | binding [2] | binding (1F-mouse Mcl-1 (mouse)) | Binder
3 | binds | binds |  | V5-TurboID-Bok^WT (protein, UniProt O35425 1-213) MEVLRRSSVFAAEIMDAFDRSPTDKELVAQAKALGREYVHARLLRAGLSWSAPERASPAPGGRLAEVCTVLLRLGDELEQIRPSVYRNVARQLHIPLQSEPVVTDAFLAVAGHIFSAGITWGKVVSLYSVAAGLAVDCVRQAQPAMVHALVDCLGEFVRKTLATWLRRRGGWTDVLKCVVSTDPGFRSHWLVATLCSFGRFLKAAFFLLLPER
4 | no binding | no binding |  | V5-TurboID-Bok^L34G (protein, UniProt O35425 1-213) MEVLRRSSVFAAEIMDAFDRSPTDKELVAQAKAGGREYVHARLLRAGLSWSAPERASPAPGGRLAEVCTVLLRLGDELEQIRPSVYRNVARQLHIPLQSEPVVTDAFLAVAGHIFSAGITWGKVVSLYSVAAGLAVDCVRQAQPAMVHALVDCLGEFVRKTLATWLRRRGGWTDVLKCVVSTDPGFRSHWLVATLCSFGRFLKAAFFLLLPER
5 |  |  | binds weakly | mouse Bok^ΔTM (domain or fragment, UniProt O35425 1-187) MEVLRRSSVFAAEIMDAFDRSPTDKELVAQAKALGREYVHARLLRAGLSWSAPERASPAPGGRLAEVCTVLLRLGDELEQIRPSVYRNVARQLHIPLQSEPVVTDAFLAVAGHIFSAGITWGKVVSLYSVAAGLAVDCVRQAQPAMVHALVDCLGEFVRKTLATWLRRRGGWTDVLKCVVSTDPGFR

— article PMC8201613
